These results are taken from PMC4336329 (PLoS ONE, 2015).

The whole screen tested about 310,000 compounds, of which about 2,200 (0.71%) showed an effect of 50% or more. The effect is printed as a negative number. This is one part of the list.

human ether-à-go-go-related gene (hERG) potassium channel, sequence (Q12809 whole entry, looked up): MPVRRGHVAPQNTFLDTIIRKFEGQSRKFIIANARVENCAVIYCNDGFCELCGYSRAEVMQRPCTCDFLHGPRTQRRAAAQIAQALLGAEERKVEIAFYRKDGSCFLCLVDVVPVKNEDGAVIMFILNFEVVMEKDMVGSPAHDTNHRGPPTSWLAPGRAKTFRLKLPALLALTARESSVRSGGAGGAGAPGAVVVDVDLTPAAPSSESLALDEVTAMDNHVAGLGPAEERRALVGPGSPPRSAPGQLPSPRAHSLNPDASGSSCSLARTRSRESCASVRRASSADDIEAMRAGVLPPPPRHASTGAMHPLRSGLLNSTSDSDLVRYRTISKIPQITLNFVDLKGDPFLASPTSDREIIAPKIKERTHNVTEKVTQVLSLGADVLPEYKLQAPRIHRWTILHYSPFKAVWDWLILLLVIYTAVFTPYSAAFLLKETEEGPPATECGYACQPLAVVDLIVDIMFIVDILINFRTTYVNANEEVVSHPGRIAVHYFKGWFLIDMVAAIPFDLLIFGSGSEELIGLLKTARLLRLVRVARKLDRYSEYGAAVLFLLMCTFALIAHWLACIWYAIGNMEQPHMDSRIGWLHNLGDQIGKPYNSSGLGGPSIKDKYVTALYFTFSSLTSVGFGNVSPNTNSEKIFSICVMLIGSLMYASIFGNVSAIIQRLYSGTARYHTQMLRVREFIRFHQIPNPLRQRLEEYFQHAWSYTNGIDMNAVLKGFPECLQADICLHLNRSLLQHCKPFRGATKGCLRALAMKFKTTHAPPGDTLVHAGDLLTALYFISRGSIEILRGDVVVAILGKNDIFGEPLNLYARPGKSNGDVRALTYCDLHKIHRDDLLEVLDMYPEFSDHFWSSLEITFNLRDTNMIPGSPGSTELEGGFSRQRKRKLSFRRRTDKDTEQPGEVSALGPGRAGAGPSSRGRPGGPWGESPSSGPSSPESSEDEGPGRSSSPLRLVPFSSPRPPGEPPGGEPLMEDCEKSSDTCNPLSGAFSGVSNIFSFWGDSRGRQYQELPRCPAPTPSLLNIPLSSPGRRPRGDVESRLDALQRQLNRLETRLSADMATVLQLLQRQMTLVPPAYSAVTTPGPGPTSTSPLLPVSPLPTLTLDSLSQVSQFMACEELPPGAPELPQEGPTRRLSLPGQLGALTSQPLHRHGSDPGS

This assay concerns the target human ether-à-go-go-related gene (hERG) potassium channel (human, UniProt Q12809). The assay can be described thus: primary screen, population patch clamp on CHO cells stably expressing hERG.
For the compound `Cc1ccc(-c2noc(CNCCCN(C)C)n2)cc1`, the “hERG current change (%, negative = inhibition) at 1uM” value stood at 10.5%.
With `Cc1ccc(NS(=O)(=O)c2ccc3c(c2)NC(=O)CCS3)cc1C` the figure was 11.4%; with `CCCC1CC(C)(c2csc(Nc3ccc(OCC)cc3)n2)OC1=O` (stereo not drawn), -0.99%; with `CC(C)NC(=O)CSc1nc(Cc2ccccc2)nc2ccccc12`, 18.3%.
With `Cc1nn(C)c(C)c1/C=C(/C(=O)C(C)(C)C)n1cncn1` the figure was 15.3%.
With `CCOC(=O)C1=C(O)C(=O)N(c2ccc(S(N)(=O)=O)cc2)C1c1ccc([N+](=O)[O-])cc1` (stereo not drawn) the figure was -4.62%.
On to `Cc1ccccc1NC(=O)c1cccc2c1C(=O)N(C1CCCCC1)C2`, for which the “hERG current change (%, negative = inhibition) at 1uM” value came to 15%.
With `CCc1nc2ccc(C(=O)N3CCN(c4ccccc4F)CC3)cc2nc1CC` the figure was 10.7%; with `O=C(CN1C(=O)NC2(CCCCCC2)C1=O)Nc1cccc(F)c1`, 2.71%.
Consider `COc1cccc(NC(=O)CN(C)C(=O)c2cc(-c3ccc(F)cc3)nc3ccccc23)c1`, for which the “hERG current change (%, negative = inhibition) at 1uM” value is on record as -1.95%.
With `O=C(O)c1cccc(NCc2ccncc2)c1` the figure was 11.5%; with `O=C(Nc1nc2ccccc2[nH]1)C1CCN(S(=O)(=O)c2cccs2)CC1`, 12%; with `COc1ccc(/C=N\NC(=O)COc2ccc(Cl)cc2Cl)c(C(=O)O)c1OC`, 4.37%.
With `COC(=O)c1cccc(C23CC4(C2)[C@H](CN(Cc2ccc(C(F)(F)F)cc2)[C@@H]4c2ccccc2)C3c2ccc(C(F)(F)F)cc2)c1` (stereo partly drawn) the figure was 5.76%; with `Nc1ccccc1S(=O)(=O)C(F)F`, 16.3%; with `COc1ccc(NC(=O)C(=O)c2cn(CC(=O)N3CCCC3)c3ccccc23)cc1OC`, 6.63%.
The same measure for `CN(CC(=O)Nc1ccc(Cl)cc1)C(=O)c1ccc(NS(=O)(=O)c2ccc3[nH]c(=O)[nH]c3c2)cc1`: 2.09%; for `CCN(CC)CCN=Cc1c(O)n(Cc2ccccc2)c(=O)[nH]c1=O` [26665338]: -11.8%; for `CC(=O)c1ccc(N2CCN(C(=O)COc3ccc4c(c3)CCC4)CC2)cc1`: -7.88%.
`COc1ccc(N2CC(C(=O)Nc3ccc(F)cc3F)CC2=O)cc1` (stereo not drawn): the “hERG current change (%, negative = inhibition) at 1uM” value is 5.59%.
`Cc1cccc(C(C)C)c1NC(=O)CN(C)Cc1cccc(F)c1`: the “hERG current change (%, negative = inhibition) at 1uM” value amounted to 10.3%.
In the case of `O=C(NCCOc1ccc(F)cc1)C1CCC(=O)N(CCCN2CCOCC2)C1` (stereo not drawn), the “hERG current change (%, negative = inhibition) at 1uM” value is on record as 15%.
For the compound `COc1ccc(CN2CC(=O)N(c3ccc(C)cc3C)C2=S)cc1OC`, the “hERG current change (%, negative = inhibition) at 1uM” value worked out at 8.87%.
With `Nc1c(NC2CCCCC2)c2ccccc2oc1=O` the figure was 5.06%; with `CC1CCCCN1CC(=O)c1c[nH]c2ccccc12` (stereo not drawn), 9.55%.
With `COc1ccc(OC)c(NC(=O)NCCc2cccc(Cl)c2)c1` the figure was 10.1%; with `Cc1cc(NC(=O)c2cccc(S(=O)(=O)N3CCOCC3)c2)c2ccccc2n1`, 2.12%; with `CC(C)CCn1c(=O)c2sccc2n2c(CCCC(=O)N3CCN(c4ccccn4)CC3)nnc12`, -44%.
With `N#Cc1ccc(Oc2cccnc2)cc1C#N` the figure was 6.45%; with `NC(=O)c1c(NC(=O)c2cccnc2)sc2c1CCCCC2`, 11.6%.
On to `CCc1ccccc1N(C)S(=O)(=O)c1ccc2[nH]cc(C(=O)O)c(=O)c2c1`, for which the “hERG current change (%, negative = inhibition) at 1uM” value is given as 9.01%.
The same measure for `Clc1ccc(CNc2nnnn2-c2ccccc2)c(Cl)c1`: 11.3%; for `CCOC(=O)C1=C(C)NC(=O)NC1c1ccccc1` (stereo not drawn): 9.26%; for `Cc1ccc(C(=O)NNC(=O)C2CCCN(c3ncccn3)C2)cc1` (stereo not drawn): 11.8%.
With `CCN(C(=O)CCS(=O)(=O)c1ccc2c(c1)oc(=O)n2C)c1ccc(OC)cc1`, the “hERG current change (%, negative = inhibition) at 1uM” value is recorded as 1.64%.
With `CC(Sc1n[nH]c(-c2ccccc2)n1)C(=O)c1c(N)n(C)c(=O)n(C)c1=O` (stereo not drawn) the figure was 12.1%.
With `COCCNC(=O)c1ccc2c(c1)nc(C)n2-c1cccc(F)c1` the figure was 3.17%.
Consider `c1ccc(Cc2nnc(Sc3ccccc3)c3ccccc23)cc1`, for which the “hERG current change (%, negative = inhibition) at 1uM” value was found to be 8.59%.
With `COC(=O)[C@@H]1C[C@H]1[C@@H](NC(=O)c1cc(C)on1)c1ccccc1` the figure was 7.01%.
The same measure for `O=C1CC(NCc2ccc3c(c2)OCO3)C(=O)N1CCc1ccccc1` (stereo not drawn): -4.52%; for `COCCCn1cc(C(=O)c2cc(OC)ccc2OCC(=O)Nc2cc(C)on2)cc(C#N)c1=O`: -9.21%; for `COc1ccc(C2=NCC(CSc3nnc(-c4ccc5c(c4)OCO5)o3)S2)cc1` (stereo not drawn): 12.2%.
The same measure for `O=C(Nn1cnnc1)C1Cc2ccccc2CN1S(=O)(=O)c1ccc(F)cc1` (stereo not drawn): 6.16%; for `Cc1cc2ccccc2n1CCNCc1c(C(=O)N2CCOCC2)nc2ccccn12`: 9.42%; for `CCCNC(=O)CCC(NS(=O)(=O)c1ccc(C)cc1)C(=O)NCCC` (stereo not drawn): 7.66%.
